The text below walks through data of the antibiotic and cytotoxicity screens of Wong et al. (2023).

Some of the results follow.

The test system of this experiment is HSkMC (human skeletal muscle cells). Description: cytotoxicity call (relative viability < 0.9). The conditions noted are these: 10 µM.
`C[C@H](CO)N1C[C@H](C)[C@@H](CN(C)S(=O)(=O)c2ccc(Cl)cc2)Oc2c(NC(=O)Nc3ccc(C(F)(F)F)cc3)cccc2C1=O`: the cytotoxicity call was “inactive”.
With `CCCNC(C)C(=O)Nc1ccccc1C.Cl` (stereo not drawn), the cytotoxicity call was “inactive”.
Next, `C[C@@H]1CN([C@@H](C)CO)C(=O)c2cccc(N(C)C)c2O[C@@H]1CN(C)S(C)(=O)=O`: “inactive”; `C[N+](C)(C)CCCCNC(=O)[C@@H]1C[C@@H]2C(=O)N[C@@H](CCCC[N+](C)(C)C)C(=O)N2[C@@H]1c1ccc(O)cc1`: “inactive”; `C[C@@H]1CN([C@@H](C)CO)C(=O)c2cc(NC(=O)Nc3ccccc3)ccc2O[C@@H](C)CCCCO[C@H]1CN(C)S(=O)(=O)c1ccc(Cl)cc1`: “inactive”.
To `C[C@@H]1CN([C@H](C)CO)C(=O)c2cc(NC(=O)NC3CCCCC3)ccc2O[C@@H](C)CCCCO[C@@H]1CN(C)S(=O)(=O)c1cccs1` belongs “inactive”; to `C[C@@H]1CN([C@H](C)CO)C(=O)c2cc(NS(C)(=O)=O)ccc2O[C@@H]1CN(C)C(=O)Nc1ccc(C(F)(F)F)cc1`, “inactive”.
Consider `C[C@@H]1CN([C@@H](C)CO)C(=O)c2cc(NC(=O)c3ccncc3)ccc2O[C@@H](C)CCCCO[C@H]1CN(C)Cc1ccc(C(F)(F)F)cc1`, for which the cytotoxicity call was “inactive”.
As to `C[C@H]1CN([C@@H](C)CO)C(=O)c2cc(NC(=O)c3ccncc3)ccc2O[C@H]1CN(C)S(=O)(=O)c1cn(C)cn1`, the cytotoxicity call is “inactive”.
In the case of `C[C@H](CO)N1C[C@H](C)[C@@H](CN(C)Cc2ccc(C(=O)O)cc2)OCCCC[C@H](C)Oc2ccc(NS(=O)(=O)c3ccccc3)cc2C1=O`, the cytotoxicity call is “inactive”.
Consider `Cc1noc(C)c1S(=O)(=O)Nc1ccc2c(c1)C(=O)N([C@H](C)CO)C[C@H](C)[C@@H](CN(C)Cc1ccc(C(F)(F)F)cc1)OCCCC[C@@H](C)O2`, for which the cytotoxicity call is “inactive”.
Regarding `Cc1noc(C)c1NC(=O)Nc1ccc2c(c1)C(=O)N([C@H](C)CO)C[C@H](C)[C@@H](CN(C)Cc1ccncc1)OCCCC[C@H](C)O2`, the cytotoxicity call is “inactive”.
Consider `COCC(=O)Nc1ccc2c(c1)[C@H]1C[C@H](CC(=O)N3CCOCC3)O[C@H](CO)[C@H]1O2`, for which the cytotoxicity call was “inactive”.
Regarding `CC(C)NC(=O)Nc1ccc2c(c1)C(=O)N([C@H](C)CO)C[C@H](C)[C@H](CN(C)Cc1ccc(C(F)(F)F)cc1)OCCCC[C@@H](C)O2`, the cytotoxicity call is “inactive”.
Next, `CC1C=CC=CC=CC=CC=CC=CC=CC(OC2OC(C)C(O)C(N)C2O)CC(O)C(C(=O)O)C(O)CC(=O)CC(O)CC(O)CC(O)CC(=O)CCCC(=O)CC(=O)OC1C(C)CC(C)C(O)CC(=O)c1ccc(N)cc1` (stereo not drawn): “active”.
On to `COc1ccc(NC(=O)N(C)C[C@H]2Oc3ccc(NC(=O)Nc4ccc(C(F)(F)F)cc4)cc3CC(=O)N([C@@H](C)CO)C[C@H]2C)cc1`, for which the cytotoxicity call was “inactive”.
Turning to `CC(=O)Nc1ccc(S(=O)(=O)Nc2onc(C)c2C)cc1`, the cytotoxicity call was “inactive”.
As for `C[C@H](CO)N1C[C@H](C)[C@@H](CN(C)C(=O)Nc2ccc3c(c2)OCO3)Oc2ncc(-c3cncnc3)cc2C1=O`, the cytotoxicity call was “inactive”.
With `C[C@@H]1CN([C@H](C)CO)C(=O)Cc2cc(NS(=O)(=O)c3cn(C)cn3)ccc2O[C@H]1CN(C)Cc1ccncc1`, the cytotoxicity call is “inactive”.
Next, `CCCN(C)C[C@H]1OCCCC[C@@H](C)Oc2ccc(NC(=O)Nc3ccc(OC)cc3)cc2C(=O)N([C@H](C)CO)C[C@@H]1C`: “inactive”; `C[C@@H]1CN([C@H](C)CO)S(=O)(=O)c2ccc(C3=CCCC3)cc2O[C@@H]1CN(C)C(=O)C1CCOCC1`: “inactive”; `C[C@H](CO)N1C[C@H](C)[C@H](CN(C)S(=O)(=O)c2cn(C)cn2)OCCCC[C@H](C)Oc2ccc(NC(=O)Nc3cccc4ccccc34)cc2C1=O`: “inactive”.
Take `CC(C)CC#Cc1cnc2c(c1)C(=O)N([C@H](C)CO)C[C@@H](C)[C@H](CN(C)S(=O)(=O)c1ccccc1)O2`: the cytotoxicity call was “inactive”.
Turning to `CC1=CC(=O)C2=C(C)CCC3C(C)C(=O)OC3C12` (stereo not drawn), the cytotoxicity call is “inactive”.
For `CN(CC(=O)NC1CCCCC1)S(C)(=O)=O`, the cytotoxicity call was “inactive”.
To `CC(C)NC(=O)N(C)C[C@@H]1Oc2c(NC(=O)NC3CCCCC3)cccc2C(=O)N([C@H](C)CO)C[C@@H]1C` belongs “inactive”.
Take `C[C@@H]1CCCCO[C@H](CN(C)C(=O)Nc2ccc(F)cc2)[C@H](C)CN([C@@H](C)CO)C(=O)c2cc(NC(=O)NC3CCCCC3)ccc2O1`: the cytotoxicity call is “inactive”.
With `C[C@@H]1CN([C@@H](C)CO)C(=O)c2cccc(NC(=O)c3ccncc3)c2O[C@H]1CN(C)S(=O)(=O)c1ccccc1`, the cytotoxicity call is “inactive”.
